Test results as given in the RNAGym collection of RNA variant scans (doi:10.1093/nar/gkz1192).
The source gives no read counts; variants with many changes may rest on few reads.

B1: CPEB3 Ribozyme (parent)
chain: UAACAGGGGGCCACAGCAGAAGCGUUCACGUCGCAGCCCCUGUCAGAUUCUGGUGAAUCUGCGAAUUCUGCUGUAUAUCUC

Variants of: B1
Experiment: self-cleavage, relative activity (ratio to wild type); higher = more cleavage; in vitro, sequencing
In short: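 Relative activity compares each variant's cleaved/total read fraction with that of the unmutated ribozyme. To get these fractions, barcoded CPEB3 ribozyme libraries from rounds of error-prone PCR were transcribed with T7 RNA polymerase for 5 hours at 37°C and then given 15 min of DNase I treatment before EDTA was added. The RNAs were reverse transcribed with template switching and sequenced on Illumina, and DNA sequencing linked barcodes to variants. A minimum of 5 reads applied, and three batches were averaged.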

Variant | self-cleavage
A15G U41C A45G A57G U66A U67C | 0.16
A15G A47G C62U U67C U80C | 0.25
A15G G52U A57C U60C | 0.23
A15G A18C U43C | 0.38
A15G U25C U41C A65G | 0.29
A15G A18G C40U U43C A65U | 0.04
A15G A35G U58A | 0.24
A15G U49C G70A | 0.21
A15G U26A U54A | 0.75
A15G A21G A47C | 0.42
A15G U25C C29U U49A A77G | 0.03
A15G A21C U43C C59U A64U A75G U78C | 0.11
A15C U41A U43C | 0.21
A15G A21G A28U U78C | 0.35
A15G A56G U58C C71U A75G A77U | 0.23
A15G U25A U31C A45G A56G A65G U78C | 0
A15G U54A U58C U69C | 0.31
A15G A35G U67C | 0.16
A15G A35G U67A | 0.39
A15G U26C U51A G63U A65U | 0.12
A15G U43C U67C U74A U76C | 0.11
A15G U43A U66C | 0.25
A15G C37U A56G A64U U78A | 0.11
A15C A45U A56U U69A U74C | 0.08

Variant | self-cleavage
A15G U26C A45G | 0.35
A15G A56C U60A | 0
A15G U25C C71U | 0.2
A15C G33A A64U U78C | 0.08
A15G U51G G53A | 1.13
A15G U54C A56G A65G | 0.2
A15G U26A U43C U66C U69A | 0.13
A15C A35G U43C A57C | 0.2
A15G A56G U66C | 0.35
A15G A18G U41A U48C U76G | 0.19
A15G U25C A35G A47G U66C U69A | 0.12
A15G A28G U43C A47U U48C | 0.07
A15G C17A U72C | 0.88
A15G C39U U49C | 0.2
A15G U26C U69C G70U | 0.14
A15G U41C U72C U78C | 1.14
A15G G55A U69C U76G | 0.48
A15G U26C U54A A57U A64G | 0.23
A15G U26A U54A U67C A75G | 0.12
A15C U26G A45U U51C U60C U78C | 0.03
A15G U26C G30A U41C | 0.08
A15G U43A C81U | 1.1
A15G U26A A75G | 0.75
A15G A47G U48C | 0.23

Variant | self-cleavage
A15G G42U A64G | 0.08
A15G U54C U67C U72C | 0.25
A15G U51C A64G | 0.33
A15G U25A A47G U58C U66C | 0.25
A15G U25C A28G U54C G61A U72C C79U | 0.03
A15G A56G U69A U74C | 0.23
A15G A21G A64U | 0.33
A15G A20G A64C | 0.29
A15G A18G U43C | 0.14
A15G U58C U69C C81G | 0.23
A15G G42A C50A A56G A77G | 0.07
A15C U74C A75G | 0.79
A15G A18U U26C U51G | 0.08
A15G G33A U41A U54C | 0.25
A15G G33A U43C | 0.23
A15G U41C U72A | 0.31
A15G A18G U41C U67C | 0.13
A15G A18U A21G | 0.49
A15C U49C U58A U67C U69C | 0.12
A15G G36A C81G | 0.26
A15G U51A U69A | 0.29
A15G U72C A75G | 1.21
A15G A47G U69A | 0.29
A15C U41G U49C A77U U80A | 0.24

Variant | self-cleavage
A15G A64G U78C | 0.66
A15G A64G U78G | 0.39
A15G U26C U60G A64G | 0.22
A15G U43C A64U | 0.14
A15G U49A A64G | 0.28
A15G C38A U43C U58C U69C | 0.12
A15G C23U U60C | 0.03
A15G A18U C38U U58C | 0.16
A15G G19C A21G G63U | 0.36
A15G U60C A75U | 0.24
A15C U25G U41A | 0.23
A15G A18U A77U | 0.3
A15G A20G U43C U78A | 0.06
A15G G19C A28U U41A U58C U60A | 0.17
A15G G42C A47U G63U | 0.19
A15G A18G G22C | 0.47
A15G G33A A65G | 0.08
A15G G61A U74C | 0.37
A15G U58A U74C | 0.29
A15G A28U U72C U76C | 1.09
A15G A20U C27U U54C | 0.08
A15G U41A A64G A75U | 0
A15G A18U U69C | 0.17
A15G A56G U80A | 0.83

Variant | self-cleavage
A15G A18G U26C U60C | 0.36
A15G U26A U58C | 0.35
A15G A47G U48A G52U C62U U67C U80C | 0.04
A15G U25C U67C U69C | 0.3
A15G U31C U48A | 0.06
A15G C29U U31C A57G A64U | 0.08
A15G A18U A20U A21G | 0.21
A15G C23U U25C | 0.28
A15C U26C A56G | 0.32
A15G C39U U74C | 1.21
A15G A21U U43C U54C U72A | 0.3
A15G A56C U72A | 0.29
A15C C39U U54C A57G | 0.21
A15G U48C A57G U67A U69C | 0.08
A15G G22C A45U U54C U69A | 0.35
A15G A45U A65G | 0.2
A15G A20G U26A C38U U51C | 0.1
A15G U48C U49C A64G | 0.16
A15C A28G A35U U58G | 0.14
A15G A18G U31C A56G U69C U76C | 0.05
A15G U41C U54C G61A | 0.31
A15C C37U A47G U48C | 0.08
A15C A21G U41A | 0.07
A15G U25C U51G | 0.34

Variant | self-cleavage
A15G U25C U43A | 0.09
A15G G16A U25C U41C U54C A65U U80C | 0.04
A15G A35G A45G U58A U69C | 0.08
A15G C29U U69A U80A | 0.13
A15G A20U U25C U60C | 0.35
A15G A21G U54A U66C | 1.17
A15G U60C U72A U80G | 0.33
A15G U26A C71A | 0.15
C14U U51G C62U U78C | 0.27
A15C U49A U51C U67C | 0.23
A15G G19U C27U A56U U69C U72C | 0.07
A15G A18U A20G U66C | 0.11
A15G A21C C62U | 0.12
A15U A18G A28C U31A U43C A56U U78C | 0.14
A15G U51C C59U | 0.66
A15G U43C U49C U60C | 0.07
A15G A28U A64G A75G | 0.16
A15G A35G C39A | 0.42
A15C U25G C27U U51C G52C U74C | 0.2
A15G U54C G63U U76C | 0.66
A15G A18U A28G | 0.31
A15G A21G A65G | 0.31
A15G G22U A45U A65U U78C | 0.09
A15G U48C U54C U76C | 0.2

Variant | self-cleavage
A15G C40U A45G G63U | 0.62
A15G C44G U80C | 0.21
A15G A20G U43C U66C U67C | 0
A15G U60C U69A | 0.26
A15G A18U U43G | 0.19
A15G A35C U43A U49C A57U U78A | 0.25
A15G A18G U41A U51A U69C | 0.07
A15G A21G U25A U80C | 0.5
A15G A35U G70A U74C | 0.19
A15C U25G A45U U69C | 0.07
A15G G52A A56G | 0.82
A15G C29A A56G U67C | 0.06
A15G C17U A21G U41A U69C | 0.03
A15G A20C U31A | 0.37
A15G A21G C27A A64G | 0.12
A15G A35U U72C | 0.97
A15G U31A G33A G52A C62U G73A | 0.06
A15G A28G G30A A35G | 0.04
A15G G52A U58C C62G U72A | 0.19
A15G A35U A64U U72A | 0.11
A15G A28G A35G A45G U72A | 0.07
A15G A21G U48C C68A U78A | 0.11
A15G G19U A21U U67C U72A | 0.03
